No constants are given. Whether binding was seen depends on the method and setting. For part of these data: Binding seen in cells or lysates may run through a third protein. Some binding calls cover weakened binding; strength is not graded here. Tags and fused reporters may be left off the sequences shown.

By UniProt entry, the sequences of proteins in these tests, tags left out.
UniProt Q9SXZ2: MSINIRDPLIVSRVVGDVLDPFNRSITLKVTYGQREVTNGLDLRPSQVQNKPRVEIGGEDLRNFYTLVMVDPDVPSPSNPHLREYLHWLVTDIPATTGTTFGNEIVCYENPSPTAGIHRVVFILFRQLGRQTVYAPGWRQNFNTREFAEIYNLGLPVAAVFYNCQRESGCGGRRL
UniProt Q93WI9: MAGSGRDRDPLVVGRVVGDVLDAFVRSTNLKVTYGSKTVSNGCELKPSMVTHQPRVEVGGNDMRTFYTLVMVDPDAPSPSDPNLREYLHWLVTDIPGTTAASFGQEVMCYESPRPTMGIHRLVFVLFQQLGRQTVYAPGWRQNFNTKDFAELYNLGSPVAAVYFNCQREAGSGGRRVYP
UniProt Q8VWH2: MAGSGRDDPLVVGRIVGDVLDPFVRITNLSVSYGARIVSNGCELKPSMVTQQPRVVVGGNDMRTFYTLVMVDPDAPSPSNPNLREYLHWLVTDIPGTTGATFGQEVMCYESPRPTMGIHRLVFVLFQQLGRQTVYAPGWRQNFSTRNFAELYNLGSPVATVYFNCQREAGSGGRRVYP

For assay [1], the target named is Arabidopsis FLOWERING LOCUS T (AtFT), pBD-GAL4 Cam bait fusion (Arabidopsis), Q9SXZ2. Description: two-hybrid; yeast; X-gal filter assays; PEBP proteins as baits in pBD-GAL4 Cam, bZIP proteins as preys in pAD-GAL4; constructs of RFT1, GF14c, OsbZIP23 and OsbZIP72 (Supplementary Fig. S10) not described. The conditions noted are these: remark: other sources report otherwise.

Assay [2] concerns the target MBP:Hd3a (rice) (UniProt Q93WI9). Description: pull-down; MBP-tagged proteins immobilized onto Amylose Resin, incubated with crude extract containing His-tagged proteins in 20 mM Tris pH 8.0, 1 mM EDTA, 100 mM NaCl, 0.1% NP40, 1 mM PMSF for 3 hours at 4 °C; 6 washes; western blot; only the target purified.
Assay [3] concerns the target MBP:AtFT (Arabidopsis), Q9SXZ2. The assay is described as above. The conditions noted are these: remark: other sources report otherwise.
Assay [4] concerns the target RFT1:cYFP (rice) (UniProt Q8VWH2). Nature of the assay: split reporter; BiFC in transfected rice protoplasts; Hd3a:cYFP or RFT1:cYFP with nYFP:AtFD or nYFP:AtFDP; confocal microscopy, YFP in the nucleus.
Assay [5] addresses T1, GF14c (rice) (UniProt Q6ZKC0).
T1 sequence: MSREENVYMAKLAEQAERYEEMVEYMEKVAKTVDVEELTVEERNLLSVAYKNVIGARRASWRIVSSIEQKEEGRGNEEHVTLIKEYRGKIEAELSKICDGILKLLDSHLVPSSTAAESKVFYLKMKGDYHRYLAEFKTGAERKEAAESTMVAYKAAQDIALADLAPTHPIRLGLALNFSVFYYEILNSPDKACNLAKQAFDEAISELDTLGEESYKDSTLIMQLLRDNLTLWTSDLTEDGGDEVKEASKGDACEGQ
Description: two-hybrid; yeast; X-gal filter assays; PEBP proteins as baits in pBD-GAL4 Cam, bZIP proteins as preys in pAD-GAL4; constructs of RFT1, GF14c, OsbZIP23 and OsbZIP72 (Supplementary Fig. S10) not described.

For assay [6], the target named is RICE FLOWERING LOCUS T 1 (RFT1), yeast two-hybrid construct (rice) (UniProt Q8VWH2). Described as above.
Assay [7] deals with Arabidopsis FLOWERING LOCUS T (AtFT), pBD-GAL4 Cam bait fusion (Arabidopsis) (UniProt Q9SXZ2). The assay is described as above.
For assay [8], the target named is MBP:AtFT (Arabidopsis) (UniProt Q9SXZ2). Nature of the assay: pull-down; MBP-tagged proteins immobilized onto Amylose Resin, incubated with crude extract containing His-tagged proteins in 20 mM Tris pH 8.0, 1 mM EDTA, 100 mM NaCl, 0.1% NP40, 1 mM PMSF for 3 hours at 4 °C; 6 washes; western blot; only the target purified. (Immunoblotting shows a protein as a band on a membrane.)

B1: Arabidopsis FD (AtFD), pAD-GAL4 prey fusion, Q84JK2 1-285 (protein)
chain: MLSSAKHQRNHRLSATNKNQTLTKVSSISSSSPSSSSSSSSTSSSSPLPSQDSQAQKRSLVTMEEVWNDINLASIHHLNRHSPHPQHNHEPRFRGQNHHNQNPNSIFQDFLKGSLNQEPAPTSQTTGSAPNGDSTTVTVLYSSPFPPPATVLSLNSGAGFEFLDNQDPLVTSNSNLHTHHHLSNAHAFNTSFEALVPSSSFGKKRGQDSNEGSGNRRHKRMIKNRESAARSRARKQAYTNELELEVAHLQAENARLKRQQDQLKMAAAIQQPKKNTLQRSSTAPF
Take B1: the binding entry in assay [1] was “binds”.

B2: His-tagged AtFD (protein, UniProt Q84JK2 1-285)
chain: B1 chain
As for B2, the binding result in assay [2] was “no binding”.

B3: His-tagged AtFD, Q84JK2 1-285 (protein)
chain: B1 chain
Take B3: the binding entry in assay [3] was “binds”.

B4: nYFP:AtFD (protein, UniProt Q84JK2 1-285)
chain: B1 chain
B4: the binding entry in assay [4] is “binds”.

B5: Arabidopsis FD (AtFD), pAD-GAL4 prey fusion (protein, UniProt Q84JK2 1-285)
chain: B1 chain
As for B5, the binding entry in assay [5] and in assay [6] was “binds” each time.

B6: Arabidopsis FD PARALOGUE (AtFDP), pAD-GAL4 prey fusion (protein, UniProt Q7PCC6 1-234)
chain: MLSSAKHNKINNHSAFSISSSSSSLSTSSSLGHNKSQVTMEEVWKEINLGSLHYHRQLNIGHEPMLKNQNPNNSIFQDFLNMPLNQPPPPPPPPSSSTIVTALYGSLPLPPPATVLSLNSGVGFEFLDTTENLLASNPRSFEESAKFGCLGKKRGQDSDDTRGDRRYKRMIKNRESAARSRARKQAYTNELELEIAHLQTENARLKIQQEQLKIAEATQNQVKKTLQRSSTAPF
As for B6, the binding entry in assay [5], in assay [7] and in assay [6] was “binds” throughout.

B7: His-tagged AtFDP (protein, UniProt Q7PCC6 1-234)
chain: B6 chain
Consider B7, for which the binding result is recorded as “binds” in assay [8] and “no binding” in assay [2].

B8: nYFP:AtFDP (protein, UniProt Q7PCC6 1-234)
chain: B6 chain
Take B8: the binding entry in assay [4] is listed as “binds”.

For the origin of these results see paper PMC5349553.
